Experimental data from article PMC6057933.
Results are given in words; binding and its absence hold for the method and conditions named. For some of these results: Binding seen in cells or lysates may run through a third protein. Some binding calls cover weakened binding; strength is not graded here. For some of these results: Where a sequence is shown, tags or fusion partners need not be part of it.

The chains behind the UniProt entries cited, without tags or fusion partners.
UniProt Q9UNE7: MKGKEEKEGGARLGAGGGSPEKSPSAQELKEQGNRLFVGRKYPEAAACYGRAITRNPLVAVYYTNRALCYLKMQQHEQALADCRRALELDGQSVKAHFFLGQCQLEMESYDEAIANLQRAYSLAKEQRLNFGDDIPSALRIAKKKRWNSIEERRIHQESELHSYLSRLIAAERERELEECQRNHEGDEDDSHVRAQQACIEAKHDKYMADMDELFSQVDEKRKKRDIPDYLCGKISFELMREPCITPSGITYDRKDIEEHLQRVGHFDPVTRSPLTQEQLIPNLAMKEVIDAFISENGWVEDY

Key:
[1] = target: T1, interferon regulatory factor-1 (IRF-1), endogenous (human (endogenous in HCC1937)) (UniProt P10914); test: proximity ligation; Duolink In Situ Orange kit; fixed, permeabilised cells transfected with siRNAs (20 pM) and exposed to 5-FU (25 μM, 24 h) or IFN-γ; primary antibodies to XAF1, IRF-1, CHIP; confocal microscopy
T1 sequence: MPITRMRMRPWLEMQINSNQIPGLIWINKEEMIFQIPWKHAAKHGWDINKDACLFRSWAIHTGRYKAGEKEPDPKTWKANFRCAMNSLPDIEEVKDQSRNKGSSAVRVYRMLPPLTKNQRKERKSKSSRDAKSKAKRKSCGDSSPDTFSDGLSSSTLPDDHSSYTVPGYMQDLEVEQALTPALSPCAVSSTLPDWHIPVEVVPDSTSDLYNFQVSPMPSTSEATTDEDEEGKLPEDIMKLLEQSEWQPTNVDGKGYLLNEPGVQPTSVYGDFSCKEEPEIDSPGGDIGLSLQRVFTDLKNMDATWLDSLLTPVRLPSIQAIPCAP

[2] = target: T1, interferon regulatory factor-1 (IRF-1), endogenous (human (endogenous in HCC1937)); test: co-IP; endogenous proteins in HCC1937 cells; IP for IRF-1 with rabbit antibody, IB with mouse antibody
[3] = target: T2, GST-fused XAF1 (GST-XAF1) (human) (UniProt Q6GPH4); test: pull-down; in vitro binding of purified GST-XAF1 and r-His-IRF-1 in binding assay buffer, 6 h at 4 °C; complexes separated with protein-A/G Sepharose 1 h; immunoblot; both purified
T2 sequence: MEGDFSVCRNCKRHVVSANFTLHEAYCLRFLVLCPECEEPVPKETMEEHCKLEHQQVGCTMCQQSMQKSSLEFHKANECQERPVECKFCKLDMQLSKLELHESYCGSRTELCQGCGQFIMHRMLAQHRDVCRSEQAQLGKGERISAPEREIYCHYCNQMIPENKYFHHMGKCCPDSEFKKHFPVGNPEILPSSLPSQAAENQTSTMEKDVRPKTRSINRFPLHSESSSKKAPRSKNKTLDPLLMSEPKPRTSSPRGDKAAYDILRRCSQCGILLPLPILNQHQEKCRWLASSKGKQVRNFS

[4] = target: T3, IRF-1 in the cells of the transfection experiments (human) (UniProt P10914); test: sequential ChIP; cell lysates precipitated with anti-IRF-1 antibody, the resulting complexes precipitated with anti-XAF1 antibody; PCR of the IRFE region of the PUMA promoter
T3 sequence: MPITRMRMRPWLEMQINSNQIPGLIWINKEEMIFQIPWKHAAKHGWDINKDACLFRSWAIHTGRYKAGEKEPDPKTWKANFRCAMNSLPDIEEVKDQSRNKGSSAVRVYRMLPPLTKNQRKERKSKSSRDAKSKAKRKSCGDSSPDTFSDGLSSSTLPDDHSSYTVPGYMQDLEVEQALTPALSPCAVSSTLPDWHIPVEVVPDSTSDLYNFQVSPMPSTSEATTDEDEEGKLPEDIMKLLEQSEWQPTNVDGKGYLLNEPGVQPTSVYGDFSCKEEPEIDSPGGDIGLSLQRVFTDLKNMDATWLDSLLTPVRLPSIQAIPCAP

[5] = target: T3, IRF-1 in the cells of the transfection experiments (human); test: co-IP; IP assay of XAF1A or XAF1C with IRF-1 in cells (Fig. 3j)

Q: How did the binding [1] turn out when “C-terminus of Hsc70-interacting protein (CHIP), endogenous (from UniProt Q9UNE7 1-303) (enzyme)” was run?
A: Its binding is “binds”.

B1: X-linked inhibitor of apoptosis (XIAP)-associated factor 1 (XAF1), endogenous (protein, UniProt Q6GPH4 1-301)
chain: MEGDFSVCRNCKRHVVSANFTLHEAYCLRFLVLCPECEEPVPKETMEEHCKLEHQQVGCTMCQQSMQKSSLEFHKANECQERPVECKFCKLDMQLSKLELHESYCGSRTELCQGCGQFIMHRMLAQHRDVCRSEQAQLGKGERISAPEREIYCHYCNQMIPENKYFHHMGKCCPDSEFKKHFPVGNPEILPSSLPSQAAENQTSTMEKDVRPKTRSINRFPLHSESSSKKAPRSKNKTLDPLLMSEPKPRTSSPRGDKAAYDILRRCSQCGILLPLPILNQHQEKCRWLASSKGKQVRNFS
Q: For B1, which binding [2] is on record?
A: The binding was “binds”.

Q: What about the binding [1] of the same molecule?
A: The binding was “binds”.

B2: N-terminal His-tagged recombinant human IRF-1 (r-His-IRF-1) (protein, UniProt P10914 1-325)
chain: MPITRMRMRPWLEMQINSNQIPGLIWINKEEMIFQIPWKHAAKHGWDINKDACLFRSWAIHTGRYKAGEKEPDPKTWKANFRCAMNSLPDIEEVKDQSRNKGSSAVRVYRMLPPLTKNQRKERKSKSSRDAKSKAKRKSCGDSSPDTFSDGLSSSTLPDDHSSYTVPGYMQDLEVEQALTPALSPCAVSSTLPDWHIPVEVVPDSTSDLYNFQVSPMPSTSEATTDEDEEGKLPEDIMKLLEQSEWQPTNVDGKGYLLNEPGVQPTSVYGDFSCKEEPEIDSPGGDIGLSLQRVFTDLKNMDATWLDSLLTPVRLPSIQAIPCAP
Q: Which binding [3] does the source give for B2 here?
A: Its binding is “binds”.

B3: WT-XAF1 (XAF1A), expressed from a plasmid in cells (protein, UniProt Q6GPH4-1 1-301)
chain: MEGDFSVCRNCKRHVVSANFTLHEAYCLRFLVLCPECEEPVPKETMEEHCKLEHQQVGCTMCQQSMQKSSLEFHKANECQERPVECKFCKLDMQLSKLELHESYCGSRTELCQGCGQFIMHRMLAQHRDVCRSEQAQLGKGERISAPEREIYCHYCNQMIPENKYFHHMGKCCPDSEFKKHFPVGNPEILPSSLPSQAAENQTSTMEKDVRPKTRSINRFPLHSESSSKKAPRSKNKTLDPLLMSEPKPRTSSPRGDKAAYDILRRCSQCGILLPLPILNQHQEKCRWLASSKGKQVRNFS
Q: With B3 as the molecule, how does the binding [4] read?
A: The binding was “binds”.

Q: What about the binding [5] of the same molecule?
A: Its binding is “binds”.

B4: XAF1C (protein, UniProt Q6GPH4-5 1-166)
chain: MEGDFSVCRNCKRHVVSANFTLHEAYCLRFLVLCPECEEPVPKETMEEHCKLEHQQVGCTMCQQSMQKSSLEFHKANECQERPVECKFCKLDMQLSKLELHESYCGSRTELCQGCGQFIMHRMLAQHRDVCRSEQAQLGKETSPDPGKCLSITVAAALSAHLWPFT
Q: With B4 as the molecule, how does the binding [5] read?
A: Its binding is “no binding”.
